# Measured values taken from the supplement of paper PMC4604168 (melanoma cell lines).
# This is one part of the list. Repeats are few or missing, and single values can be far off.
# What was measured:
# Assay in all cases: cell count relative to DMSO control; melanoma cells; higher = more viable cells
# Details in all cases: library dose: standard library concentration; 72 h
# A101D = tested on: A101D
# A2058 = tested on: A2058
# A375 = tested on: A375
# 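Note: cells treated in 1,536-well plates, then fixed and DAPI-stained, with nuclei counted from automated high-throughput microscope images.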
Compound,cell count (A101D) [%],cell count (A2058) [%],cell count (A375) [%]
"O=C(/C=C/c1cccnc1)NCCCCC1CCN(C(=O)c2ccccc2)CC1 + NCC(=O)Nc1ccc(-n2nc(C(F)(F)F)cc2-c2ccc3c(ccc4ccccc43)c2)cc1 [OSU03012] (first compound 0.05 µM, partner dose 5 µM)",81.4,79.2,60.1
"Cc1ccc(Nc2nccc(N(C)c3ccc4c(C)n(C)nc4c3)n2)cc1S(N)(=O)=O [Pazopanib] + NC(=O)Nc1cc(-c2cccc(F)c2)sc1C(=O)N[C@H]1CCCNC1 [AZD7762] (first compound 2 µM, partner dose 0.1 µM)",68.1,97.9,65.8
"CC1(C)CCC(c2ccc(Cl)cc2)=C(CN2CCN(c3ccc(C(=O)NS(=O)(=O)c4ccc(N[C@H](CCN5CCOCC5)CSc5ccccc5)c(S(=O)(=O)C(F)(F)F)c4)cc3)CC2)C1 + CO[C@@H]1[C@H](N(C)C(=O)c2ccccc2)C[C@H]2O[C@]1(C)n1c3ccccc3c3c4c(c5c6ccccc6n2c5c31)C(=O)NC4 [Midostaurin] (first compound 2 µM, partner dose 0.4 µM)",28.5,42,40.4
"Cc1ccc(Nc2nccc(N(C)c3ccc4c(C)n(C)nc4c3)n2)cc1S(N)(=O)=O [Pazopanib] + COc1cc2c(Oc3ccc4[nH]c(C)cc4c3F)ncnc2cc1OCCCN1CCCC1 [cediranib] (first compound 2 µM, partner dose 2 µM)",88.2,88.8,112
"CC1(C)CCC(c2ccc(Cl)cc2)=C(CN2CCN(c3ccc(C(=O)NS(=O)(=O)c4ccc(N[C@H](CCN5CCOCC5)CSc5ccccc5)c(S(=O)(=O)C(F)(F)F)c4)cc3)CC2)C1 + COc1cc2c(Oc3ccc4[nH]c(C)cc4c3F)ncnc2cc1OCCCN1CCCC1 [cediranib] (first compound 2 µM, partner dose 2 µM)",57.2,89.8,77.8
"CC1(C)CCC(c2ccc(Cl)cc2)=C(CN2CCN(c3ccc(C(=O)NS(=O)(=O)c4ccc(N[C@H](CCN5CCOCC5)CSc5ccccc5)c(S(=O)(=O)C(F)(F)F)c4)cc3)CC2)C1 + OCCn1cc(-c2cnc3nnn(Cc4ccc5ncccc5c4)c3n2)cn1 [PF04217903] (first compound 2 µM, partner dose 5 µM)",49.9,92.3,78
"O=C(/C=C/c1cccnc1)NCCCCC1CCN(C(=O)c2ccccc2)CC1 + COCC[n+]1c2c(n(Cc3cnccn3)c1C)C(=O)c1ccccc1C2=O [YM155] (first compound 0.05 µM, partner dose 0.002 µM)",57.1,18.7,76.4
"CC1(C)CCC(c2ccc(Cl)cc2)=C(CN2CCN(c3ccc(C(=O)NS(=O)(=O)c4ccc(N[C@H](CCN5CCOCC5)CSc5ccccc5)c(S(=O)(=O)C(F)(F)F)c4)cc3)CC2)C1 + CC(C)(C)c1cnc(CSc2cnc(NC(=O)C3CCNCC3)s2)o1 [SNS-032] (first compound 2 µM, partner dose 0.05 µM)",38.2,68.2,103
"CC1(C)CCC(c2ccc(Cl)cc2)=C(CN2CCN(c3ccc(C(=O)NS(=O)(=O)c4ccc(N[C@H](CCN5CCOCC5)CSc5ccccc5)c(S(=O)(=O)C(F)(F)F)c4)cc3)CC2)C1 + C[C@]1(O)C[C@@H](c2nc(-c3ccc4ccc(-c5ccccc5)nc4c3)c3c(N)nccn32)C1 [OSI906] (first compound 2 µM, partner dose 2 µM)",38,81.2,46.2
"Cc1ccc(Nc2nccc(N(C)c3ccc4c(C)n(C)nc4c3)n2)cc1S(N)(=O)=O [Pazopanib] + C=CCn1c(=O)c2cnc(Nc3ccc(N4CCN(C)CC4)cc3)nc2n1-c1cccc(C(C)(C)O)n1 [MK1775] (first compound 2 µM, partner dose 0.1 µM)",80.3,107,57
"CC1(C)CCC(c2ccc(Cl)cc2)=C(CN2CCN(c3ccc(C(=O)NS(=O)(=O)c4ccc(N[C@H](CCN5CCOCC5)CSc5ccccc5)c(S(=O)(=O)C(F)(F)F)c4)cc3)CC2)C1 + COc1cc(Nc2ncc(F)c(Nc3ccc4c(n3)NC(=O)C(C)(C)O4)n2)cc(OC)c1OC [Tamatinib] (first compound 2 µM, partner dose 2 µM)",23.6,71,76.5
"Cc1ccc(Nc2nccc(N(C)c3ccc4c(C)n(C)nc4c3)n2)cc1S(N)(=O)=O [Pazopanib] + Clc1ccc(Nc2nnc(Cc3ccncc3)c3ccccc23)cc1 [vatalanib] (first compound 2 µM, partner dose 10 µM)",72.4,86.9,90.2
"Cc1ccc(Nc2nccc(N(C)c3ccc4c(C)n(C)nc4c3)n2)cc1S(N)(=O)=O [Pazopanib] + Cc1nc(Nc2ncc(C(=O)Nc3c(C)cccc3Cl)s2)cc(N2CCN(CCO)CC2)n1 [dasatanib] (first compound 2 µM, partner dose 0.02 µM)",64.7,58.3,69.1
"O=C(/C=C/c1cccnc1)NCCCCC1CCN(C(=O)c2ccccc2)CC1 + O=C(Nc1cccc(Cl)c1)Nc1ncc(CCNc2ncnc3ccsc23)s1 [SNS314] (first compound 0.05 µM, partner dose 0.004 µM)",78.6,94,112
"O=C(/C=C/c1cccnc1)NCCCCC1CCN(C(=O)c2ccccc2)CC1 + C=C(c1ccc(C(=O)O)cc1)c1cc2c(cc1C)C(C)(C)CCC2(C)C [Bexarotene] (first compound 0.05 µM, partner dose 10 µM)",94.2,137,107
"Cc1ccc(Nc2nccc(N(C)c3ccc4c(C)n(C)nc4c3)n2)cc1S(N)(=O)=O [Pazopanib] + Cc1cn(-c2cc(NC(=O)c3ccc(C)c(Nc4nccc(-c5cccnc5)n4)c3)cc(C(F)(F)F)c2)cn1 [nilotinib] (first compound 2 µM, partner dose 1 µM)",98.8,166,99.9
"Cc1ccc(Nc2nccc(N(C)c3ccc4c(C)n(C)nc4c3)n2)cc1S(N)(=O)=O [Pazopanib] + CC(C)C[C@H](NC(=O)[C@H](Cc1ccccc1)NC(=O)c1cnccn1)B(O)O [Bortezomib] (first compound 2 µM, partner dose 0.005 µM)",15.8,9.13,81.4
"CC1(C)CCC(c2ccc(Cl)cc2)=C(CN2CCN(c3ccc(C(=O)NS(=O)(=O)c4ccc(N[C@H](CCN5CCOCC5)CSc5ccccc5)c(S(=O)(=O)C(F)(F)F)c4)cc3)CC2)C1 + CN1CCN(c2ccc3nc(-c4c(N)c5c(F)cccc5[nH]c4=O)[nH]c3c2)CC1 [Dovitinib] (first compound 2 µM, partner dose 0.5 µM)",21,23.9,27
"O=C(/C=C/c1cccnc1)NCCCCC1CCN(C(=O)c2ccccc2)CC1 + Cn1nnc2c(C(N)=O)ncn2c1=O [temozolomide] (first compound 0.05 µM, partner dose 10 µM)",97.5,52.1,108
"Cc1ccc(Nc2nccc(N(C)c3ccc4c(C)n(C)nc4c3)n2)cc1S(N)(=O)=O [Pazopanib] + Nc1ncn([C@H]2C[C@H](O)[C@@H](CO)O2)c(=O)n1 [decitabine] (first compound 2 µM, partner dose 0.5 µM)",81.7,87.9,87.9
"O=C(/C=C/c1cccnc1)NCCCCC1CCN(C(=O)c2ccccc2)CC1 + Cc1cc(Nc2cc(N3CCN(C)CC3)nc(/C=C/c3ccccc3)n2)n[nH]1 [ENMD2076] (first compound 0.05 µM, partner dose 0.2 µM)",73.7,94.2,89.1
"Cc1ccc(Nc2nccc(N(C)c3ccc4c(C)n(C)nc4c3)n2)cc1S(N)(=O)=O [Pazopanib] + Cn1c(=O)n(-c2ccc(C(C)(C)C#N)cc2)c2c3cc(-c4cnc5ccccc5c4)ccc3ncc21 [NVP-BEZ235] (first compound 2 µM, partner dose 0.02 µM)",64.5,56.5,99.2
"Cc1ccc(Nc2nccc(N(C)c3ccc4c(C)n(C)nc4c3)n2)cc1S(N)(=O)=O [Pazopanib] + CN1CCN(c2ccc3nc(-c4c(N)c5c(F)cccc5[nH]c4=O)[nH]c3c2)CC1 [Dovitinib] (first compound 2 µM, partner dose 0.5 µM)",70.2,21.7,69.3
"CC1(C)CCC(c2ccc(Cl)cc2)=C(CN2CCN(c3ccc(C(=O)NS(=O)(=O)c4ccc(N[C@H](CCN5CCOCC5)CSc5ccccc5)c(S(=O)(=O)C(F)(F)F)c4)cc3)CC2)C1 + NCC(=O)Nc1ccc(-n2nc(C(F)(F)F)cc2-c2ccc3c(ccc4ccccc43)c2)cc1 [OSU03012] (first compound 2 µM, partner dose 5 µM)",21.1,83.4,21
"Cc1ccc(Nc2nccc(N(C)c3ccc4c(C)n(C)nc4c3)n2)cc1S(N)(=O)=O [Pazopanib] + Cc1ccc(NC(=O)c2cccc(N(C)C)c2)cc1NC(=O)c1ccc(O)cc1 [ZM336372] (first compound 2 µM, partner dose 10 µM)",74.5,96.2,97.5
